Experimental data: PubChem BioAssay AID504332 (National Center for Advancing Translational Sciences (NCATS), 2011)
The whole screen tested about 350,000 compounds, of which about 31,000 (8.9%) were called active. The shares of active, inactive and inconclusive entries below differ from those in the screen. The call rests on the fitted dose curve; in most records, active means well fitted inhibition curve with a large enough effect; inconclusive means small, poorly fitted or top-dose-only effect; inactive means no such curve, though single readings can be large or run the other way. Where the call is inconclusive, the potency comes from a doubtful curve fit.

What follows are molecules tested against Histone-lysine N-methyltransferase EHMT2 (Homo sapiens) (UniProt Q96KQ7) (assay: qHTS Assay for Inhibitors of Histone Lysine Methyltransferase G9a). Details: G9a H3K9 monomethylation, AlphaScreen, 2 h; activity, negative = inhibition: at 59 µM (top of the series) unless noted.
Outline: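 G9a (20 nM) preincubated 15 min RT with compounds, then 500 nM biotinylated H3K9 peptide and 20 uM SAM added; 2 h RT reaction. Monomethyl-H3K9 product detected by AlphaScreen with anti-H3K9me1 antibody, streptavidin donor and anti-rabbit IgG acceptor beads.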
Further: nearly all actives have a fitted effect of over 75% in size.
On the % scale 0 is the no-effect control and ±100 the full control effect; potency means the concentration at half of the fitted maximal effect; tags describe the fitted curve by direction and shape.

Sequence of UniProt Q96KQ7 (Q96KQ7 whole entry, looked up): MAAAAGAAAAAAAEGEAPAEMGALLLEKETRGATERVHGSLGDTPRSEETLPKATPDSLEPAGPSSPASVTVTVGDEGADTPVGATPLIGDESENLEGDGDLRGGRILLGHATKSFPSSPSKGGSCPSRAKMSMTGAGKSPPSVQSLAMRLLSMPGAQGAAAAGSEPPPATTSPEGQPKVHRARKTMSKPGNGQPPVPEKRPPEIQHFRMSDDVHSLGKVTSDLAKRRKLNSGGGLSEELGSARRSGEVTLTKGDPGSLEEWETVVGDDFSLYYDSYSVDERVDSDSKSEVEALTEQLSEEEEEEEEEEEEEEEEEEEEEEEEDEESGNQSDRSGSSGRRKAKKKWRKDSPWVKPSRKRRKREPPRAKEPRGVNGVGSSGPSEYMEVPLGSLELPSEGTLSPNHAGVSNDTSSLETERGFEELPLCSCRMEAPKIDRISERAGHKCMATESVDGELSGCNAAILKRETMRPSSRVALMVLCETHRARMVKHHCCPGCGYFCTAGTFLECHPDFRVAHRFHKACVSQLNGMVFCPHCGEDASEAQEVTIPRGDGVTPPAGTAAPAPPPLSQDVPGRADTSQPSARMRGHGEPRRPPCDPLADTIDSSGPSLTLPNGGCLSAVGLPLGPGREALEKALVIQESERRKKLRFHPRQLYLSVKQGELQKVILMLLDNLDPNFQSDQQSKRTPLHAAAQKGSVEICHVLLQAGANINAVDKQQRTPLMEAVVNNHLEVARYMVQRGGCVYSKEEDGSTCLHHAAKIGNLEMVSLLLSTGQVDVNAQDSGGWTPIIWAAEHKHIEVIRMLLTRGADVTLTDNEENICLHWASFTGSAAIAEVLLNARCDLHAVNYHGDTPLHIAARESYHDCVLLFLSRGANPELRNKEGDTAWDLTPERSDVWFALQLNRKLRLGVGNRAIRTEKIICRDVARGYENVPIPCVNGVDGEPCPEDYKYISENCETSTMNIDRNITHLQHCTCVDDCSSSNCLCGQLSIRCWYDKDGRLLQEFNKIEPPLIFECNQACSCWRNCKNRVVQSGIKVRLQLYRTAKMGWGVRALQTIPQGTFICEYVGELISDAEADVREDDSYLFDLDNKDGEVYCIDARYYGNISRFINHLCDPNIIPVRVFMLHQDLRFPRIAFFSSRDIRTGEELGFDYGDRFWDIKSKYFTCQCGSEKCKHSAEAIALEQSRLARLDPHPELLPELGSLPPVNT

Structure (SMILES) | Potency | activity, negative = inhibition
O=C1c2ccccc2C(=O)C12OC2c1ccc(Cl)cc1 (centres undefined) | inconclusive: 2.51 µM [inhibitor, full curve, poor fit] | –
CC1CN(C(=O)Cn2cc(S(=O)(=O)CC(=O)N(C)c3ccccc3)c3ccccc32)CC(C)O1 (centres undefined) | inconclusive: 89.1 µM [inhibitor, single point] | –
N#CCCN(Cc1ccccc1)C(=S)NC(=O)c1ccccc1 | – | inconclusive: -75.1% [inhibitor]
O=C(NCC1COc2ccccc2O1)c1c[nH]c2ccc(S(=O)(=O)N3CCOCC3)cc2c1=O (centres undefined) | inconclusive: 89.1 µM [inhibitor, partial curve, poor fit] | –
COC(=O)CCCCCCCCC(O)CN(C)C (centres undefined) | inconclusive: 79.4 µM [inhibitor, single point] | –
O=C(O)C1CCN(S(=O)(=O)Cc2ccccc2)CC1 | inconclusive: 0.251 µM [inhibitor, partial curve, poor fit] | –
CCOc1ccccc1N1CCN(C(=O)c2cc(C)oc2C)CC1 | – | inactive: -7.33% [at 12.7 µM]
Cc1nc(-c2ccc(C(=O)N3CCOCC3)cc2)cs1 | inactive | –
Cc1cc(C)cc(NC(=S)NC2CC3CCCC(C2)N3CC(C)C)c1 (centres undefined) | inconclusive: 70.8 µM [inhibitor, single point] | –
Cc1cc(Nc2cccc(F)c2)n2nc(-c3ccco3)nc2n1 | – | inactive: 9.26% [at 12.7 µM]
CCn1c(C(=O)N2CCCC(C(=O)NCCc3ccc(C)cc3)C2)cc2sccc21 (centres undefined) | inactive | –
Cc1ccccc1/C=N/N1C(=O)CSC1=S | inconclusive: 39.8 µM [inhibitor, single point] | –
COc1cc(C(C)=O)ccc1OC(C)C(=O)Nc1ccc(S(=O)(=O)N2CCCC2)cc1 (centres undefined) | – | inactive: 9.79% [at 12.7 µM]
Cc1ccc(S(=O)(=O)N2CCN(C3CC4CCC3C4)CC2)cc1 (centres undefined) | active: 8.91 µM | –
Cc1nc2nc(SCC(=O)c3cccc([N+](=O)[O-])c3)[nH]c2cc1Br | inconclusive: 28.2 µM [inhibitor, partial curve, poor fit] | –
O=C(NNC(=S)NC(=O)c1cccc([N+](=O)[O-])c1)c1ccc(O)cc1 | active: 20 µM | –
NC(=S)NNc1ccc(Cl)c(Cl)c1 | active: 12.6 µM | –
CC1(C)CC(=O)C(C=NCCN2CCN(C(=O)C34CC5CC(CC(C5)C3)C4)CC2)=C(O)C1 | inconclusive: 1.58 µM [inhibitor, partial curve, poor fit] | –
Cc1ccc(NC(=O)C(Nc2cccc(C)c2)c2ccccc2)cc1 (centres undefined) | inconclusive: 28.2 µM [inhibitor, single point] | –
CCOc1ccc2c(c1)nc(SCC(=O)c1ccc(Br)s1)n2C | active: 39.8 µM | –
CC1Oc2ccccc2N(CC(=O)N2CCCCCC2)C1=O (centres undefined) | inconclusive: 79.4 µM [inhibitor, single point] | –
COc1ccc(N2CCN(C(=O)c3cc4c(=O)n(Cc5cccs5)ccc4nc3C)CC2)cc1 | inconclusive: 15.8 µM [inhibitor, partial curve, poor fit] | –
Cc1ccc(NC(=O)CN2CCOCC2)cc1Cl | inactive | –

Structure (SMILES) | Potency | activity, negative = inhibition
COC(=O)N/N=C/c1ccc(-c2cccc(Cl)c2)o1 | inconclusive: 0.316 µM [inhibitor, full curve] | –
NC(=O)C1(N2CCCCC2)CCN(C(=O)Nc2ccc(Cl)c(Cl)c2)CC1 | inactive | –
CCOC(=O)c1c(NC(=O)CSc2nnc3c(Cl)cc(Cl)cn23)sc2c1CCC2 | inconclusive: 39.8 µM [inhibitor, partial curve, poor fit] | –
O=C1C=C(c2ccccc2)OC(c2ccccc2)O1 (centres undefined) | inconclusive: 31.6 µM [inhibitor, partial curve, poor fit] | –
Cc1ccc(-c2cc(C(=O)Nc3ccc(S(=O)(=O)Nc4onc(C)c4C)cc3)[nH]n2)c(O)c1 | inconclusive: 22.4 µM [inhibitor, partial curve, poor fit] | –
Cc1ccc(C2CC(c3cccs3)=NN2C(=O)c2ccc(Br)o2)cc1 (centres undefined) | inconclusive: 63.1 µM [inhibitor, partial curve, poor fit] | –
O=C(O)c1cccc(-n2cccc2/C=C/[N+](=O)[O-])c1 | active: 10 µM | –
Cc1ccc(C2C(C#N)=C(N)SC(N)=C2C#N)o1 | active: 1.58 µM | –
Cc1cc(=O)[nH]c(N/N=C/c2ccc(C)o2)n1 | inconclusive: 89.1 µM [inhibitor, single point] | –
CCCn1c(N)c(N(CCOC)C(=O)CCC2CCCCC2)c(=O)[nH]c1=O | inconclusive: 28.2 µM [inhibitor, partial curve, poor fit] | –
O=C(c1cccs1)N(Cc1ccco1)Cc1cc2ccccc2[nH]c1=O | inconclusive: 79.4 µM [inhibitor, single point] | –
O=C(Cn1cnc2cc([N+](=O)[O-])ccc2c1=O)N(Cc1ccccc1)C1CCS(=O)(=O)C1 (centres undefined) | inconclusive: 56.2 µM [inhibitor, single point] | –
COc1ccc(OCCCC(=O)ON=C(N)c2ccccc2Cl)cc1 | inconclusive: 8.91 µM [inhibitor, partial curve, poor fit] | –
Cc1ccc(OC(=O)c2ccc(Cl)c([N+](=O)[O-])c2)cn1 | inconclusive: 89.1 µM [inhibitor, single point] | –
Cc1ccc(C2c3[nH]c4ccccc4c3CCN2C(=O)c2ccc(N(C)C)cc2)cc1 (centres undefined) | inconclusive: 22.4 µM [inhibitor, single point] | –
O=C(CCOc1ccccc1)N(Cc1cccnc1)c1nc2c(Cl)cccc2s1 | inconclusive: 14.1 µM [inhibitor, partial curve, poor fit] | –
CSCCC(NS(=O)(=O)/C=C/c1ccccc1)C(=O)O (centres undefined) | inconclusive: 89.1 µM [inhibitor, partial curve, poor fit] | –
COC(=O)C1=C(CSc2nc3c(cc2C#N)CN(C)CC3)OC(N)=C(C#N)C1c1ccccc1F (centres undefined) | active: 14.1 µM | –
Cc1cccc(Cn2c(=O)n(CCc3ccccc3)c(=O)c3sc4ccccc4c32)c1 | inactive | –
O=C(O)c1ccc(Nc2nc(-c3ccccc3)nc3ccccc23)cc1 | inconclusive: 89.1 µM [inhibitor, single point] | –
COc1ccccc1OCc1nc(-c2ccc([N+](=O)[O-])cc2)no1 | inconclusive: 12.6 µM [inhibitor, partial curve] | –
O=C(N=C1N=C2C=CC=CN2Cc2ccccc21)c1ccc(S(=O)(=O)N2CCOCC2)cc1 | inconclusive: 50.1 µM [inhibitor, partial curve] | –
CCOC(=O)N1CCc2c(sc3c2c(=O)n(Cc2ccccc2)c(=O)n3CC(=O)Nc2ccccc2F)C1 | inactive | –

Structure (SMILES) | Potency | activity, negative = inhibition
O=C(c1cccc(F)c1)N1CCC(N2CCOCC2)CC1 | inconclusive: 2.24 µM [inhibitor, full curve, poor fit] | –
Cc1ccc(NC(=O)COC(=O)C2CC(=O)N(Cc3ccccc3)C2)cc1S(=O)(=O)N(C)C (centres undefined) | active: 39.8 µM | –
COc1ccc(C)cc1NC(=O)C(CCSC)NS(=O)(=O)c1ccc2c(c1)oc(=O)n2C (centres undefined) | inactive | –
Cc1ccccc1-c1nnn(C/C(N)=N/O)n1 | inactive | –
CCn1nnc2cc(C(=O)Nc3cccc(C(F)(F)F)c3)ccc21 | inactive | –
O=C1CC(N2CCOCC2)C(=O)N1c1ccccc1Cl (centres undefined) | – | inconclusive: -67.6% [inhibitor]
CCOC(=O)C(NC(=O)c1ccccc1Cl)(Nc1sc2c(c1C(N)=O)CCC2)C(F)(F)F (centres undefined) | active: 28.2 µM | –
CC1(C)Cc2nc3oc4c(SCC(N)=O)ncnc4c3cc2CO1 | inactive | –
CCOc1ccc(C(C)NC(=S)NCc2ccc(Cl)cc2)cc1 (centres undefined) | inactive | –
CCN1CC=C2C(C#N)=C(N)C(C#N)(C#N)C(CCc3ccccc3)C2C1 (centres undefined) | inconclusive: 70.8 µM [inhibitor, partial curve, poor fit] | –
Cc1c(C2CCN(CCc3ccccc3)CC2)noc1-c1ccc(Cl)cc1 | inconclusive: 1 µM [inhibitor, partial curve, poor fit] | –
O=C(N/N=C/c1sc2ccccc2c1O)c1ccccc1 | inconclusive: 39.8 µM [inhibitor, single point] | –
O=C(NCc1cccnc1)Nc1ccc2c(c1)OCO2 | inconclusive: 79.4 µM [inhibitor, partial curve, poor fit] | –
CCOC(=O)c1cc(-c2ccccc2)nn1CCC#N | inactive | –
CN1CC[C@H](CN2c3ccccc3Sc3ccccc32)C1 | active: 15.8 µM | –
CCOc1cc(C2CC(=O)N3CN(C4CCCCC4)CSC3=C2C#N)ccc1O (centres undefined) | active: 2.24 µM | –
O=C(COC(=O)CCS(=O)(=O)c1ccccc1)NC(=O)c1ccc(OC(F)F)cc1 | inactive | –
O=C(Oc1ccc(Cl)cc1N1C(=O)CCC1=O)c1ccco1 | inconclusive: 89.1 µM [inhibitor, single point] | –
CCSc1oc(-c2ccccc2)nc1S(=O)(=O)c1ccccc1 | inconclusive: 3.55 µM [inhibitor, single point] | –
Cc1ccccc1-c1ccc(C=Nc2c(C)n(C)n(-c3ccccc3)c2=O)o1 | inconclusive: 44.7 µM [inhibitor, partial curve, poor fit] | –
COc1ccc(-c2ccnc3c(C(=O)O)cnn23)cc1 | inconclusive: 89.1 µM [inhibitor, partial curve, poor fit] | –
COc1ccc(Cl)c(NC(=O)C/C(C)=N/NC(=O)CCc2ccccc2)c1 | inactive | –
O=C(O)c1ccc(S(=O)(=O)N(CCc2ccccc2)Cc2ccc(Cl)cc2)cc1 | inconclusive: 56.2 µM [inhibitor, partial curve, poor fit] | –
